PubChem BioAssay AID1865 (National Center for Advancing Translational Sciences (NCATS), 2009)
The whole screen tested about 280,000 compounds, of which about 540 (0.19%) were called active. The inconclusive results got no clear call from the source; some entries with a clear call stand among them for comparison. Calls follow the shape of the dose curve; as a rule, active = well fitted activation curve with a large enough effect; inconclusive = small, poorly fitted or top-dose-only effect; inactive = flat fitted curve, though single readings scatter. Where the call is inconclusive, the potency comes from a doubtful curve fit.

assay: Quantitative High-Throughput Screen for Regulators of Epigenetic Control; conditions: murine LDR cells, GFP reporter derepression, 30 h; GFP activation: at 53.9 µM (top of the series); also: nearly all actives have a fitted effect of over 60% in size; as to GFP activation: % of control where 0% means no effect
Outline: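 Derepression of a silenced CMV-GFP reporter in murine LDR cells is scored by enumerating GFP-positive cells with a laser-scanning microplate cytometer after 30 hours of treatment at 37 C.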
Potency is read from the fitted curve at half-maximal effect; tags tell the direction and shape of the fitted curve.

SMILES | Potency | GFP activation
Cc1ccc(C)c(-c2ccc(C(=O)O)o2)c1 | inconclusive: 44.7 µM [activator, single point] | –
N#C/C(=C/c1ccc(N2CCOCC2)o1)c1ccc(Br)cc1 | active: 3.98 µM | –
CCN1CCN(C(=O)C(C)Nc2ccc(OC)cc2OC)CC1 (stereo unspecified) | inconclusive: 6.31 µM [activator, single point] | –
COC(=O)/C=C/c1cc(O)ccc1O | – | inactive: 12.6%
COc1ccc(C2C3=C(CCCC3=O)Nc3n[nH]c(C)c32)cc1OC (stereo unspecified) | – | inactive: -1.89%
Cc1ccc(S(=O)(=O)COCCN2CCN(S(=O)(=O)c3ccc(C)cc3)CCC2=O)cc1 | – | inactive: -0.0918%
O=C(COc1ccccc1)Nc1ccc(S(=O)(=O)N(Cc2ccccc2)c2ccccc2)cc1 | inconclusive: 0.199 µM [activator, full curve, poor fit] | –
CCOc1ccc(Nc2nc3ccccc3n3nnnc23)cc1 | inconclusive: 35.5 µM [activator, single point] | –
CCCN1C(=O)/C(=C/c2ccc(N3CCCC3)c(C)c2)NC1=S | active: 1 µM | –
CCc1ccc(-n2c(SCC(=O)c3ccc4c(c3)NC(=O)CO4)nc3ccccc3c2=O)cc1 | inconclusive: 35.5 µM [activator, single point] | –
Oc1c(I)cc(Cl)c2cccnc12 | inconclusive: 31.6 µM [activator, single point] | –
NC(=O)CC(NC(=O)Cc1cccc2ccccc12)c1ccc(NCCc2ccc(F)cc2)c([N+](=O)[O-])c1 (stereo unspecified) | inconclusive: 35.5 µM [activator, single point] | –
Cc1cc(C)n2nc(SCc3nnc(SCc4ccccc4Cl)s3)nc2n1 | – | inactive: -0.917%
CCS(=O)(=O)N1N=C(c2ccc(C)cc2)CC1c1cc2ccc(OC)cc2nc1Cl (stereo unspecified) | inconclusive: 28.2 µM [activator, single point] | –
Cc1csc(NC(=O)CSc2nsc(SCC(=O)Nc3nc(C)cs3)c2C#N)n1 | inconclusive: 28.2 µM [activator, single point] | –
O=C(Nc1nc(-c2ccccc2)c(-c2ccccc2)o1)c1ccc(F)cc1 | – | inactive: -2.58%
COc1cc(/C=C/C(=O)c2ccc(Cl)s2)cc(OC)c1O | inconclusive: 35.5 µM [activator, single point] | –
O=C(Nc1cccc(S(=O)(=O)N2CCOCC2)c1)c1ccco1 | – | inactive: 1.98%
O=C(Cn1c(=O)n(Cc2ccc3c(c2)OCO3)c(=O)c2oc3ccccc3c21)Nc1ccccc1 | inconclusive: 25.1 µM [activator, single point] | –
O=C(Nc1ccc(NC(=O)C2CC2)nc1)c1ccncc1 | inconclusive: 25.1 µM [activator, single point] | –
Cc1ccc(C)c(S(=O)(=O)NCc2ccncc2)c1 | – | inactive: -1.15%
Cc1ccc2cc3cc(C(=O)Nc4ccc(F)cc4Cl)oc3nc2c1 | inconclusive: 28.2 µM [activator, single point] | –
Cn1c(SCc2ccc(F)cc2)nc2ccc(C(=O)NCc3ccc(F)cc3)cc21 | – | inactive: 0.833%
Cc1[nH]c2ccccc2c1C(=O)CN1C(=O)C(=O)N(Cc2ccco2)C1=O | – | inactive: -1.54%

SMILES | Potency | GFP activation
Cc1cccc(C(=O)NNC2=C(C(=O)C(F)(F)F)CCC2)c1O | – | inactive: 0.73%
CCOc1ccc(C(=O)N/N=C(\c2ccccc2)c2ccccn2)cc1 | inconclusive: 35.5 µM [activator, single point] | –
O=C1c2ccc(O)c(O)c2C(=O)c2c(O)ccc(O)c21 | – | inactive: 0%
C=C(C(C)=O)C(O)c1ccc([N+](=O)[O-])cc1 (stereo unspecified) | inconclusive: 31.6 µM [activator, single point] | –
O=C(/C=C/c1ccc(OCCCF)cc1)Nc1ccnc(-c2cccnc2)n1 | inconclusive: 25.1 µM [activator, single point] | –
COc1ccc(NC(=O)c2sc3nc4c(cc3c2N)CN(Cc2ccccc2)CC4)c(OC)c1 | active: 7.08 µM | –
O=C1Nc2ccccc2Oc2cc(Oc3ccccc3)ccc21 | inconclusive: 31.6 µM [activator, single point] | –
CCCC(=O)Nc1cccc2c1CCCC2 | – | inactive: 0.399%
CCC(CNc1cc(OC)cc2cccnc12)NC1CCCCC1 (stereo unspecified) | – | inactive: 0.787%
S=c1[nH]cnc2sc(Nc3ccccc3)nc12 | inconclusive: 6.31 µM [activator, single point] | –
CCCN(Cc1ccccc1)C(=S)Nc1cccc(C(F)(F)F)c1 | inconclusive: 35.5 µM [activator, single point] | –
CCCCN1/C(=C/c2ccc3ccccc3[n+]2CC)Sc2ccccc21 | active: 3.16 µM | –
Cc1cc(C)c(NC(=O)CSc2ncc3c(n2)-c2cc(Cl)ccc2N(C)S3(=O)=O)c(C)c1 | inconclusive: 14.1 µM [activator, single point] | –
Cc1cc(C)c(NC(=O)C2CCN(c3nc4ccccc4n4cccc34)CC2)c(C)c1 | inconclusive: 15.8 µM [activator, single point] | –
COC(=O)c1c(NC(=O)c2ccc(S(=O)(=O)N3CCC(C)CC3)cc2)sc2c1CCN(C)C2 | inconclusive: 25.1 µM [activator, single point] | –
Cc1ccccc1CNC(=O)c1cnc2sc(N3CCC(C)CC3)nn2c1=O | – | inactive: -2.75%
Cc1ccc(N2C(N)=C(C#N)C(c3cccs3)C3=C2CC(C)(C)CC3=O)cc1 (stereo unspecified) | – | inactive: -2.78%
COc1ccccc1/C=C/C(=O)Oc1cccc2cccnc12 | inconclusive: 31.6 µM [activator, single point] | –
O=C(O)c1ccc(COc2ccccc2C=C2C(=O)c3ccccc3C2=O)cc1 | inconclusive: 35.5 µM [activator, single point] | –
Cc1cc(C)c2cc3c(N)c(C(=O)N4CCc5ccccc5C4)sc3nc2c1 | inconclusive: 28.2 µM [activator, single point] | –
CCOc1cc(-c2ccc(OC(=O)c3ccc(C)cc3)c(OC)c2)cc(=O)c2c(C)oc(C)c12 | inconclusive: 35.5 µM [activator, single point] | –
Oc1c(C=Nc2cccc3nsnc23)ccc2ccccc12 | inconclusive: 17.8 µM [activator, single point] | –
O=C(Nc1ccc(F)cc1F)N1CCCCC1c1cccnc1 (stereo unspecified) | inconclusive: 5.62 µM [activator, single point] | –
Cc1cccc(C)c1NC(=O)Cn1c(=O)n(Cc2ccc3c(c2)OCO3)c(=O)c2oc3ccccc3c21 | inconclusive: 17.8 µM [activator, single point] | –

SMILES | Potency | GFP activation
CC1(C)CC(=O)C(C=Nc2ccc(C(=O)c3ccccc3)cc2N=CC2=C(O)CC(C)(C)CC2=O)=C(O)C1 | inconclusive: 31.6 µM [activator, single point] | –
O=C(Nc1cccc(S(=O)(=O)NC2=NCCC2)c1)c1cc(-c2ccccn2)nc2ccccc12 | inconclusive: 31.6 µM [activator, single point] | –
Cc1ccccc1-n1c(Cn2c(=O)sc3ccccc32)nnc1SCC(=O)Nc1nccs1 | – | inactive: -0.0291%
Cc1[nH]c2ccccc2c1/C=C/c1nc2ccccc2c(=O)n1-c1ccc([N+](=O)[O-])cc1 | inconclusive: 17.8 µM [activator, single point] | –
COc1ccc(-c2nnc3ccc(SCC(=O)Nc4nc5ccc(C)cc5s4)nn23)cc1OC | inconclusive: 35.5 µM [activator, single point] | –
COCCn1c(SCC(=O)c2c[nH]c3ccccc23)nc2cc(C(=O)NC(C)C)ccc2c1=O | inconclusive: 35.5 µM [activator, single point] | –
CCN(CC)c1ccc2cc(-c3nc(-c4ccccc4F)no3)c(=O)oc2c1 | active: 12.6 µM | –
O=C(N/N=C/C(Br)=C/c1ccccc1)c1cccs1 | inconclusive: 35.5 µM [activator, single point] | –
COC(=O)c1c(-c2ccccc2Cl)noc1/C=C/N(C)C | active: 22.4 µM | –
COc1ccc(N2CCN(c3oc(/C=C/c4cccc(OC)c4)nc3C#N)CC2)cc1 | inconclusive: 22.4 µM [activator, single point] | –
Cc1ccc(N=C2NC(=O)S/C2=C\c2ccco2)cc1 | – | inactive: 0%
CCc1[nH]nc2c1C(C1C=CCCC1)C(C#N)=C(N)O2 (stereo unspecified) | inconclusive: 22.4 µM [activator, single point] | –
COc1ccccc1Nc1nc2c(C)cccc2cc1C#N | inconclusive: 20 µM [activator, single point] | –
COc1ccc2c(c1)C(=O)[C@H](OC(=O)NCc1ccco1)[C@@H](c1ccc(OC)c(Br)c1)O2 | – | inactive: 0%
CCc1ccc(-n2nc(CO)c(C(=O)NCCCCc3ccccc3)n2)cc1 | – | inactive: -1.96%
CC1CCN(c2nc3ccccc3nc2C(C#N)S(=O)(=O)c2ccccc2)CC1 (stereo unspecified) | inconclusive: 20 µM [activator, partial curve] | –
CC(=O)NC(CSC(CC(=O)c1ccco1)c1ccc(C)cc1)C(=O)O (stereo unspecified) | inconclusive: 35.5 µM [activator, single point] | –
COc1cc(-c2noc(CCC(=O)Nc3cccnc3)n2)cc(OC)c1OC | inconclusive: 3.55 µM [activator, single point] | –
CCS(=O)(=O)c1ccc(N=Nc2ccc(O)c3ncccc23)c(OC)c1 | active: 3.55 µM | –
Cc1[nH]nc(-c2ccc(O)cc2O)c1Oc1ccccc1 | inconclusive: 6.31 µM [activator, single point] | –
O=C(Nc1ccc2nc(-c3ccco3)c(-c3ccco3)nc2c1)NC1CC1 | – | inactive: 0%
COc1ccc(NC(=O)c2nc(S(=O)(=O)Cc3ccc(C)cc3)ncc2Cl)cc1 | inconclusive: 4.47 µM [activator, single point] | –
Oc1ccc(-c2n[nH]c(C(F)(F)F)c2-c2ccccc2)c(O)c1 | – | inactive: -1.2%
